# Measurements reported in paper PMC4336329 (PLoS ONE, 2015).
# The whole screen tested about 310,000 compounds, of which about 14,000 (4.5%) showed an effect of 50% or more. The effect is printed as a negative number. The list shows a part of the results.
# Molecular target: human ether-à-go-go-related gene (hERG) potassium channel (human, UniProt Q12809)
# Assay: primary screen, population patch clamp on CHO cells stably expressing hERG
# 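Further: peak tail current of the secondary pulse compared with the same well before compound.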
# Sequence of human ether-à-go-go-related gene (hERG) potassium channel (Q12809 whole entry, looked up): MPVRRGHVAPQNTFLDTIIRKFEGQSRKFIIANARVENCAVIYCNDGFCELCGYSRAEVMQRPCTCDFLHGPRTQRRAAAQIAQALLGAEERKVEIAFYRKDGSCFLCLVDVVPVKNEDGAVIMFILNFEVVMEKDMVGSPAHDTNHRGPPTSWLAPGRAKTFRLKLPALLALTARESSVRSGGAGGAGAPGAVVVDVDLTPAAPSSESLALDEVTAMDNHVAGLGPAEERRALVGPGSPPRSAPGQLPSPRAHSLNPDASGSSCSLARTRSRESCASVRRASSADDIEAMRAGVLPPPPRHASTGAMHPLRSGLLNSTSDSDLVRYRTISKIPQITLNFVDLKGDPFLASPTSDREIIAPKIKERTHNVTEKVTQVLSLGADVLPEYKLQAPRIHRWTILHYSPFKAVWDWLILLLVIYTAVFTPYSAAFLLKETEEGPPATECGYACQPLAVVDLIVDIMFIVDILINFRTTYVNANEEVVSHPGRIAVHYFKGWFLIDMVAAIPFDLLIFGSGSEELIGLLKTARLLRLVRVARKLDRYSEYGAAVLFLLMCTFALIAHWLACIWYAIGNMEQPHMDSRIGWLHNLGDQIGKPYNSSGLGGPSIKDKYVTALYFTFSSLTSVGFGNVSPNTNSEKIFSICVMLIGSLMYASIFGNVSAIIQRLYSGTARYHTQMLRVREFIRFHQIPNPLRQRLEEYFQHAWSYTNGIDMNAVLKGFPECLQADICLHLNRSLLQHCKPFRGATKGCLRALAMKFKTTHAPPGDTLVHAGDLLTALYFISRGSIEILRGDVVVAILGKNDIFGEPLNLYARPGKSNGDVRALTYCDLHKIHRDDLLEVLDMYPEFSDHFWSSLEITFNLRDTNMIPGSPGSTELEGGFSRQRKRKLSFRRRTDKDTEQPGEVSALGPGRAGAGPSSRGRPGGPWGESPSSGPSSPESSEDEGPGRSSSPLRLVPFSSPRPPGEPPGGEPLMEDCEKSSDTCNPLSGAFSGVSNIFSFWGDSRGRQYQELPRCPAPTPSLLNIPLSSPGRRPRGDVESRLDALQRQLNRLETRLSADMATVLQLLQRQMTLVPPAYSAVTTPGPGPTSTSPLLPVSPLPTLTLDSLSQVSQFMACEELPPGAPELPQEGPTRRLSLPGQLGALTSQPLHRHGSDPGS
row,SMILES,"hERG current change (%, negative = inhibition) at 10uM [%]"
1,CCc1cc2cc(C)cc(C)c2nc1SCC(=O)NNC(=O)c1ccco1,6.63
2,Cc1nc2ccccc2c2oc(C(=O)N3CCCC(C)C3)cc12 (stereo not drawn),-24.5
3,COc1ccc(NC(=O)c2cc(S(=O)(=O)N3CCc4ccccc43)cn2C)c(OC)c1,-6.34
4,CC(=O)Nc1ccccc1OC(C)C(=O)N1CCC(C)CC1 (stereo not drawn),19.4
5,COc1ccc(C(=O)Nc2ccc(Nc3ccccc3)cc2)cc1[N+](=O)[O-],-37
6,NC(=O)C1CCN(C(=O)/C=C/c2cccc(Br)c2)CC1,1.61
7,COCCn1c(SCC(=O)Nc2ccc(C(C)=O)cc2)nc2c([nH]c3ccccc32)c1=O,1.97
8,COC(=O)c1ccc(CNC(=O)c2cc3ccccc3oc2=O)cc1,27.9
9,Cc1ccc(-c2cnc(SCCNC(=O)c3ccco3)[nH]2)cc1,-24.9
10,COc1ccc(-c2nc(-c3ccc(NC(=O)c4ccncc4)cc3)no2)cc1OC,7.54
11,O=C(C1CCC(CNS(=O)(=O)c2cccc3cccnc23)CC1)N1CCc2ccccc21 (stereo not drawn),-12.5
12,O=C1CSc2ccc(C(=O)NCCC3=CCCCC3)cc2N1,19.5
13,COc1cc(-c2nnco2)cc(OC)c1OC,16.3
14,O=C(NCc1ccco1)C(c1ccncc1)N(CCC1=CCCCC1)C(=O)Cn1nnc2ccccc21 (stereo not drawn),-7.38
15,COc1cccc(-c2nnn(CC(=O)NC3CCCC3)n2)c1OC,9.7
16,COC(=O)CC(NC(=S)NC(=O)c1ccccc1)c1ccc(Br)cc1 (stereo not drawn),6.8
17,COc1ccccc1NC(=O)CCNC(=O)c1ccc(C)cc1,10
18,CCOC(=O)C1CCN(C(=O)CNC(=O)c2nn(-c3ccc(OC)cc3)c(=O)c3ccccc23)CC1,-9.73
19,NS(=O)(=O)c1ccc(CCNC(=O)CSc2ccc(Cl)cc2Cl)cc1,-16.4
20,C=CCc1ccc(OCCN2CCc3ccccc3C2)c(OC)c1.O=C(O)C(=O)O,-67.6
21,O=C(CN1CCCCC1)Nc1ccc(S(=O)(=O)NC2CCCCC2)cc1,-43
22,CCCCCCCCSc1nnc(/N=C/N(C)C)s1,9.23
23,O=C(CSCCO)Nc1ccc(C23CC4CC(CC(C4)C2)C3)cc1,11.2

row,SMILES,"hERG current change (%, negative = inhibition) at 10uM [%]"
1,Cn1c(-c2ccc(F)cc2)cnc1SCC(=O)NNC(=O)Cc1ccccc1,6.24
2,CCc1ccc(CNC(=O)C2CCCN(S(=O)(=O)N3CC(C)CC(C)C3)C2)cc1 (stereo not drawn),25.7
3,CN(C(=O)CSc1nc2c(cnn2-c2ccccc2)c(=O)[nH]1)C1CCS(=O)(=O)C1 (stereo not drawn),16.1
4,COC(=O)c1sccc1NC(=O)Nc1ccccc1Cl,11.1
5,Cc1c(CC(=O)NCC(=O)O)c(=O)oc2cc3occ(-c4ccccc4)c3cc12,12.6
6,CCOc1ccc(C2/C(=C(/O)c3ccc4c(c3)CC(C)O4)C(=O)C(=O)N2CCCn2ccnc2)cc1OCC (stereo not drawn),25
7,CCC(=O)NC(=S)Nc1cccc(Cl)c1N1CCCC1,11.1
8,COc1ccc(N2C(=O)C(CC(=O)Nc3ccccc3)N(Cc3ccc4c(c3)OCO4)C2=O)cc1 (stereo not drawn),12.1
9,CCOc1ccc(/C=N/OCC(=O)NCc2ccco2)cc1,-12.9
10,C=CCn1c(SCC(=O)Nc2ccc(N3CCOCC3)cc2)nnc1-c1ccncc1,-17.4
11,O=S1(=O)CCN(OCc2ccc(F)cc2Cl)CC1,34.4
12,Cc1cc(=O)c(C(=O)O)nn1-c1cccc(C(F)(F)F)c1,-74.6
13,CC(=O)NCCC(=O)N1CCCC(N(C)CCc2ccccc2)C1 (stereo not drawn),-26.7
14,O=C(Cn1nnc2c(sc3nc4c(c(-c5ccccc5)c32)CCC4)c1=O)c1ccccc1,25.9
15,c1nc2nc3c(c(N4CCOCC4)n2n1)CCCC3,-12.1
16,Cc1cc2cc(CCNC(=O)c3cccc([N+](=O)[O-])c3)c(=O)[nH]c2cc1C,-47.1
17,CCOc1ccc(N=Cc2c(O)n(Cc3ccccc3)c(=S)[nH]c2=O)cc1,10.5
18,O=[N+]([O-])c1ccc(OCCCCCN2CCOCC2)cc1,-58.6
19,COc1cc(/C=C2/C(=N)N3N=C(CC(=O)N4CCOCC4)SC3=NC2=O)ccc1OC(C)c1ccccc1 (stereo not drawn),11.7
20,CC1CCCCC1NC(=O)Cn1nnc2ccccc2c1=O (stereo not drawn),8.43
21,CCC(=O)c1ccc(OCC(=O)OCC(=O)c2cc(C)n(CC3CCCO3)c2C)cc1 (stereo not drawn),-42.6
22,CCc1ccc(CN(C)C(=O)c2cc(COc3ccc(OC)cc3Cl)on2)nc1,-19.7
23,O=C(CSc1nccn1-c1ccccc1)c1ccc(Cl)cc1,-2.04

row,SMILES,"hERG current change (%, negative = inhibition) at 10uM [%]"
1,C(=C\c1cccc2ccccc12)/c1nnc(-c2cccs2)o1,59.7
2,O=C(N/N=C/c1ccncc1)c1sc2ccccc2c1Cl,7.72
3,COCCCNC(c1ccccc1)c1ccncc1.Cl (stereo not drawn),10.4
4,CC1C(c2ccccc2)C(C#N)(C#N)C2(C#N)C(=O)NC1(N)C2C (stereo not drawn),-3.25
5,O=C(CN(C(=O)CCC(=O)Nc1nccs1)c1ccc2c(c1)OCO2)NCC1CCCO1 (stereo not drawn),9.85
6,O=C1CCCN1CCCNS(=O)(=O)c1ccc(Br)s1,9.72
7,COc1ccc(NC(=O)c2c(Nc3ccccc3)sc(C(=O)c3ccc(F)cc3)c2N)cc1,-3.94
8,O=C(c1ccc(NC(=S)NCc2ccco2)cc1)N1CCCCC1,-6.26
9,O=C(O)COc1ccccc1O,4.38
10,Cc1nnc(SCC(=O)N(C)C2CCCCC2)s1,15.2
11,Cc1c(C(=O)N2CCCCC2)c(S(=O)(=O)N(C)Cc2ccccc2)c(C)n1C,2.66
12,O=C(c1ccc(F)cc1F)N1CCN(c2n[nH]c(=O)[nH]c2=O)CC1,9.72
13,CCN1CCN(CCCNC(=O)c2cc3c(s2)-c2ccccc2OC3)CC1,-66.7
14,Cc1ccc(OCC(O)Cn2c(NCCc3ccccc3)nc3c2c(=O)[nH]c(=O)n3C)cc1 (stereo not drawn),-2.46
15,CCCCOc1ccc(C(=O)N2CC(C)OC(C)C2)cc1 (stereo not drawn),-5.8
16,COc1ccc(S(=O)(=O)NCc2ccccn2)cc1,13.7
17,O=C1NC(c2ccc(Cl)cc2Cl)Oc2ccccc21 (stereo not drawn),11.6
18,Cc1cc(C)c2sc(NC(=O)C3CC3)nc2c1,-12.1
19,COc1cc(C)c(C(C)C)cc1S(=O)(=O)N1CCN(C)CC1,-3.93
20,Cc1ccc(-n2nc3ccc(N)cc3n2)c(C)c1,23.9
21,OCCN1CCN(c2cc(C(F)(F)F)nc3ccccc23)CC1,-8.62
22,CCNC(=S)N(Cc1ccc2c(c1)OCO2)C1CC(=O)N(c2ccc(OC)cc2)C1=O (stereo not drawn),4.43
23,COc1ccc2cc(C(C)C(=O)N3CCC(C)CC3)ccc2c1 (stereo not drawn),-71.9

row,SMILES,"hERG current change (%, negative = inhibition) at 10uM [%]"
1,CNC(=O)C1CCC(=O)N1Cc1ccc(C)cc1 (stereo not drawn),11
2,CC(=O)N(C1=NCCCS1)c1ccc(Cl)cc1,17.8
3,COc1ccc(Cl)cc1NC(=O)CC(C)c1ccccc1 (stereo not drawn),-1.98
4,O=C(Cc1c(O)c2ccccc2oc1=O)c1ccc(C(F)(F)F)cc1,16.7
5,O=C(COC(=O)c1ccccc1NCCO)NCCc1ccccc1,-2.39
6,Cc1[nH]c2ccc(C(=O)O)cc2c1C,10.8
7,COc1ccccc1NS(=O)(=O)c1cccc(NC(=O)c2ccc3ccccc3n2)c1,3.05
8,O=C(NCC12CC3CC(CC(C3)C1)C2)c1nc2ncccn2n1,-49.8
9,CC1CCc2c(C(=O)Nc3ccccn3)csc2C1 (stereo not drawn),-9.72
10,N#CC(C#N)=Cc1ccc(NC(=O)c2ccc(Br)cc2)cc1,1.8
11,O=C(c1ccc(C23CC4CC(CC(C4)C2)C3)o1)N1CCOCC1,-37.2
12,S=C(NCc1ccccc1)NCc1ccc(CNC(=S)NCc2ccccc2)cc1,9.48
13,Cc1ccnc(NS(=O)(=O)c2cc([N+](=O)[O-])ccc2C)c1,10.6
14,Cc1ccc(-c2nnc(OCC3CCCO3)c3ccccc23)cc1 (stereo not drawn),-65.2
15,Cc1nc2sc(C(c3cccs3)N3CCOCC3)c(O)n2n1 (stereo not drawn),-7.87
16,O=C1CCCc2c1cc(C(=O)Nc1ccc(Br)cn1)c(=O)n2-c1ccccc1,-2.93
17,COc1cccc(NC(=O)CSCC(=O)O)c1,1.77
18,O=C(CCNS(=O)(=O)c1ccc(Cl)cc1)NCc1ccccn1,-13.1
19,CC1(C)Cc2c(c(-c3ccccc3)nc(N3CCOCC3)c2C(N)=O)CO1,-7.57
20,Cc1ccc(N/C(=N/S(=O)(=O)c2cccs2)c2ccccc2)c(C)c1,5.96
21,Cc1noc(C)c1S(=O)(=O)N1CCCC(C(=O)NCCc2ccccc2)C1 (stereo not drawn),0.701
